In the supplement of paper PMC11417369:
This is one part of the list.

Test system: PfAP2-HC AP2 domain (GST-tagged)
Experiment: gcPBM binding intensity (ln(normalized median fluorescence intensity)); higher = stronger DNA binding
Summary of the method: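 Using an Agilent 4 × 180k array, primer-extended double-stranded 36-bp intergenic genomic probes and negative controls were exposed for 1 h to GST-fused P. falciparum DNA-binding domains expressed in E. coli. Binding was carried out in 1× PBS with 1% milk, 0.2 mg/ml BSA, 0.5% salmon testes DNA and 0.03% Triton X-100, and protein was detected with Alexa488 anti-GST antibody and a 488 nm scan. Binding intensity is the highest Masliner-normalised natural-log median intensity across replicate spots of either probe orientation.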

Row | Sequence | gcPBM binding intensity (ln)
1 | AAAATTTAATATAATGCACACATAAAAAAAAATTCA [CACACA_site8640] | 9.77
2 | TCCTGCCTCTCTTTGGTGCGTTGTAACCCTCGAGGA | 9.55
3 | ATATTAATATACATATGTACATATATATATATATAT [XGTACX_site7425] | 9.8
4 | TAAATTATTTATAAAGCACACAAGAAAAAATAAAAT [CACACA_site2132] | 9.84
5 | ATATATATGTATATGTGTACTTATATTTGTCATTTT [XGTACX_site1317] | 9.74
6 | GAACAAAAGGAATGTTGTACATAAAAAATGAAAAAT [XGTACX_site3929] | 9.8
7 | AAAAAAATTAAACACACACACACATATATATATATA [CACACA_site4718] | 11.5
8 | AAAAAAGTAAAAAGTGCATGTAAAATATAAGTATCT [TGCATGCA_site55] | 10.2
9 | TTTTTTTTTTATTTTGCACACTTCTAATTTAGTTGT [CACACA_site3429] | 9.9
10 | GTTATTCTTAATTTTTGTACACATTTTTATATTATT [XGTACX_site7227] | 10.1
11 | AATTCCTATAATGAGAGTACGCATTAGAACAGTAGG [XGTACX_site5721] | 9.66
12 | TTGATAAAAAAAAAAAAATAAAAAAAAAATAAAAAA [XGTACX_negctrl_site480] | 9.29
13 | AATAAATATATAAATACACACAAACATACAGATATA [CACACA_site6088] | 10.2
14 | TTTAAAAGATAAAGACTGCACTTTAAGCACACAAAT [GTGCAC_site9752] | 9.7
15 | TTTATATCGACTCTTCTTTATATAAGTTGTGATGTT [TGCATGCA_negctrl_site362] | 9.76
16 | TAAAGTGTAAAGAAGGTGCTCATTATTTATTTTTTT | 9.62
17 | AGTTTCCTTGAGAAAAGTACGTAATACTACATATAT [XGTACX_site818] | 9.91
18 | TTTATATTAGGTCTTGAACGATTTTCATCATTATTA [TGCATGCA_negctrl_site100] | 9.52
19 | ATATGATATATTTTATGTACATATAAAACATATATA [XGTACX_site4297] | 9.51
20 | TTATACTTTTTTTCTTGGTGTAGAAAAAAAAGTTAG [CACACA_negctrl_site1207] | 9.22
21 | AAAAAAGAAACAAACACACATACATACAAACAAACA [CACACA_site142] | 10.6
22 | AAATTGTAGAAGCGTATTTCTCGAACTGGATGAATA [CACACA_negctrl_site1373] | 9.72
23 | AATTAATGGAAACAAGTCAAATGATCTTTATGCATA [TGCATGCA_negctrl_site540] | 9.53
24 | AACAAGGCCCGGTACTGTACATTTTTTCATAACATT [XGTACX_site6134] | 9.62
